Experimental data reported in the RNAGym collection of RNA variant scans (doi:10.1073/pnas.2313332121).
Variants at the background level are over-represented here.

B1: TPR 5TU (parent)
chain: GGAUCUUCUCGAUCUAACAAAAAAGACAAAUCUGCCACAAAGCUUGAGAGCAUCUUCGGAUGCAGAGGCGGCAGCCUUCGGUGGCGCGAUAGCGCCAACGUUCUCAACUAUGACACGCAAAACGCGUGCUCCGUUGAAUGGAGUUUAUCAUG

Variants of: B1
Assay: polymerase ribozyme fitness, log enrichment relative to wild type (log ratio); higher = more active; in vitro selection for triplet polymerase activity
Outline: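 A heterodimeric triplet polymerase ribozyme had each of its subunits mutagenized by PCR into a library, which was transcribed. One round of in vitro selection, done in triplicate, annealed each library with a biotinylated primer, its partner subunit and triplets, then incubated it frozen at −7 °C before gel excision of extended constructs, streptavidin-bead capture and RT-PCR. Fitness is the logarithm of genotype enrichment relative to wild-type enrichment, based on Illumina sequencing of inputs and outputs and inverse-variance-weighted replicate averages. A base-2 logarithm is used, and genotypes were kept only with ≥10 input reads and ≥1 read per output.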

| Variant | polymerase ribozyme fitness (log ratio) |
| --- | --- |
| GGAUCUUCUCGAUCUUACAAAAAAGACAAAACUGCCACAAAGCUUGAGAGCAUCUUCGGAUGCAGAGGCGGCAGCCUUCGGUAGCGCGAUAGCGCCAACGUUCUUAACUAUGACACGCAAAACGCGUGCUCCGUUGAAUGGAGUUUAUCAUG [A16U U31A G83A C105U] | -1.17 |
| GGAUCUUCUCGAUCUUACAAAAAAGACAAAUCUGCCAUAAAGCUUGAGAGCAUCUUCCGAUGCAGAGGCGGCAGCCUUCGGCGGCGCGAUAGCGACAACGUUCUCAACAAUGACACGCAAAACGGGUGCUCCGCUGAAUGGAGUUUAUCAUG [A16U C38U G58C U82C C95A U109A C125G U134C] | ≤ -4.2 |
| GGAUCUUCUCGAUCUUACAAAAAAGACAAAUCUGCCACAAAGCUUGAGAGCAUCUUCGGAUGCAGAGGCGGCAGCCUUCGAUGGCGCGAUAGCGCCAACGUUCUCAACUAUGACACGCAAAACGCGUGCUCCGUUGAAUGGAGUUUAUCAUG [A16U G81A] | -1.95 |
| GGAUCUUCUCGAUCUUACAAAAAAGACAAAUCUGCCACAAAGCUUGAGAGCAUCUUCGGAUGCAGAGGCGGGAGCCUUCCUUGGCGCGAUAGGGCCAACGUUCUAAACUAUGACUCGCAAAACGCGUGCUCCGUUGAAUGGAGUUUAUCAUG [A16U C72G G80C G81U C93G C105A A115U] | ≤ -4.2 |
| GGAUCUUCUCGAUCUUACAAAAAAGAUACAUCUGCCACAAAGCUUGAGGGCAUCUUCGGAUGCAGAGGCGGCAGCCUUCGGUGGCGCGAUAGCGUCAACGUUCUGAACUAUGACACGCAAAACGCGUGCUCCGUUGAAUGGAGUUAAUCAUG [A16U C27U A29C A49G C95U C105G U146A] | ≤ -4.2 |
| GGAUCUUCUCGAUCUUACAAAAAAAACAAAUCUGCCACAAAGCUUGAGAGCAUCUUAGGAUGCAGAGGCGGCAGCCUUCGGUGCCGCGAUAGCGCCAACGUUCUCAACUAUGACACGCAAAACGCGUGCUCCGUUGAAUGGAGCUUAUCAUG [A16U G25A C57A G84C U144C] | ≤ -4.2 |
| GGAUCUUCUCGAUCUUACAAAAAAGACAAAUCUGCAACAAAGCUUGAGAGCAUCUUCGGAUGCAGAGGCGGCAGCCUUCGGUGGCGCGAUAGCGCCAACGUUCUCAACUAUGACAGGCAAAACGCGUGCUCCGAUGAAUGGAGUUUAUCAUG [A16U C36A C116G U134A] | ≤ -4.2 |
| GGAUCUUCUCGAUCUUACAAAAAAGACAAAUCUGCCACAAAGCUUGAGAGCAUCUUCGGAGGCAGAGGCGGCAGCCUUCGAUGGCGCGAUAGCGCCAACGUUCUCAACUAUGACACGCAAAACGCGUGCUCCGUUGAAUGGAGUUUAUCAUG [A16U U61G G81A] | -1.91 |
| GGAUCUUCUCGAUCUUACAAAAAAGACAAAUCUGCCAUUAAGCUUGAGAGCAGCAUCGGAUGCAGAGGCGGCAGCCUUCGGUGGCGCGACAGCGCGAACGGUCUCAACUAUGAUACGCAAAACGCGUGCUCCGUUGAAUGGAGUUUAUCAUG [A16U C38U A39U U53G U55A U90C C96G U101G C114U] | ≤ -4.2 |
| GGAUCUUCUCGAUCUUACAAAAAAGACAAAUCUGCCACAAAGCUUGAGAGCAUCUUCGGAUGCAGAGGCGGCAGCCUUCGGUGGCGCGAUAGGGCCAACGUUCUCAACUAUGACACGCAAAACGCGUGCUCCGUUGAAUGGAGUUUAUCAUG [A16U C93G] | ≤ -4.2 |
| GGAUCUUCUCGAUCUUACAAAAAAGACAAAUCUGUCACAAAGCUUGAGAGCAUCAUUGGAUGCAGAGGCGGCAGCCUUCGGUGGCGCGACAGCGCCAACGUUCUCAACUAUGAUACGCAAUACGCGUGCUCCUUUGAAUGGAGUUUAUCAUG [A16U C35U U55A C57U U90C C114U A121U G133U] | ≤ -4.2 |
| GGAUCUUCUCGAUCUUACAAAAAAGACAAAUCUGCCACAAAGCUUGAGAGCAUCUUCGGAUGCAGAGGCGGCAACCUUCGGUGUCGCGACAGCGCCAACGUUCUCAACUAUGACACGUAAUACGCGUGCUCCGUUGAAUGGAGUUUAUCAUG [A16U G74A G84U U90C C118U A121U] | ≤ -4.2 |
| GGAUCUUCUCGAUCUUAUAAAAAAGACUAAUCUACCACAAAGCUUGAGAGCAUCUUCGGAUGCAGAGGCGGCAGCCUUCGGUGGCGCAUUAGCGCCAACGUUCUCAACUAUGACACGCAAAACGAGUGCUCCGUUGAAUGGAGUUUAUCAUG [A16U C18U A28U G34A G88A A89U C125A] | ≤ -4.2 |
| GGAUCUUCUCGAUCUUACAAAAAAGACAAAUCUGCCACAAAGCUUGAGAGCAUCUUCGAAUGCAGAGGCGGCAGCCUCCGGUGGCGCGAUAGCGCCAACGUUCUCAACUAUGACACGCAAAACGCGUGCUCCGUUGAAUGGAGUUUAUGAUG [A16U G59A U78C C149G] | ≤ -4.2 |
| GGAUCUUCUCGAUCUUACAAAAAAGACAAAUCUGCCACAAAGCUUGAGAGCAUCUUCGGAUGCAGAGGCCGCAGCCUUCGUUGGCGCGGUAGCGCCAACGUUCUCAACUAUGACACGCAAAACGCGUGCUCCGUUGAAUGGAGUUUAUCAUG [A16U G70C G81U A89G] | ≤ -4.2 |
| GGAUCUUCUCGAUCUUACAAAAAAGACAAAUCUGCCACAAAGCUUGAGAGCAUCUUCGGAUGCAGAGGCGGCAGCCUUCGGUGGCGCGAUAGCGCCAACGUUCUCAACUAUGACACGCAAAACUCGUGCUCCGUUGAAUGGAGUUUAUCAUG [A16U G124U] | -2.37 |
| GGAUCUUCUCGAUCUUACAAAAAAGACAAAUCUGCCAAAAAGCUUGAGAGCAUCUUCGGAUGCAGAGGCGGCAGACUUCGGUGGCGCGAUAGCGCCAACGUUCUCAACUAUGAUACGCAAAACGCGUGCUCCGUUGAAUGGAUUUUAUCAUG [A16U C38A C75A C114U G143U] | ≤ -4.2 |
| GGAUCUUCUCGAUCUUACAAAAAAGACAAAUCUGCCACAAAGCUUGACAGCAGCUUCGGAUGCAGAGGCGGCAGCCUUCGGUGGCGCGAUAGCGCGAACGUUCUCAACUAUGUCACGCAAAACGCGUGCUCCGUUGAAUGGAGUUUAUCAUG [A16U G48C U53G C96G A113U] | ≤ -4.2 |
| GGAUCUUCUCGAUCUUACAAAAAAGACAAAUCUGCCACAAAGCUUGAGAGCAACUUCGGAUGCAGAGGCGGCAGCCUUCUGUGGUGCGAUAGCGCCAACGUUCUCAACUAUGACACGCAAAACGCGUGCUCCGUUGAAUGGAGUUUAUCAUU [A16U U53A G80U C85U G152U] | ≤ -4.2 |
